Where a name gives a salt, the structure may show the parent alone. In all, about 2,000 compounds were measured (“fractional viability relative to vehicle”: median about 0.91, lowest 2% from about 0.045 on). Some of the results follow.
Test system: TYKNU
Assay: fractional viability relative to vehicle; TYKNU is a high-grade serous ovarian cancer line; higher = less growth inhibition
Conditions: 72 h
How it was run: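 TYKNU control cells or lentiCRISPRv2 knockout derivatives were seeded at 500 cells per well into drug-stamped 384-well plates holding a ~2100-compound library at 2 or 10 μM, in duplicate. Cells were grown at 37 °C in 5% CO2 in RPMI 1640 with 10% FBS, and drug treatment lasted 72 h. Viability was read by Cell Titer Glo luminescence. Duplicate treatment wells were averaged and normalised to duplicate control wells from the same plate position.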

[1] = 2uM, genotype: DNM1L knockout (sgDNM1L #1)
[2] = 2uM, genotype: sgCTRLA1 (non-targeting control)
[3] = 10uM, genotype: DNM1L knockout (sgDNM1L #1)
[4] = 10uM, genotype: sgCTRLA1 (non-targeting control)

Row | Compound | fractional viability [1] | fractional viability [2] | fractional viability [3] | fractional viability [4]
1 | OC1(c2ccc(Cl)c(C(F)(F)F)c2)CCN(CCCC(c2ccc(F)cc2)c2ccc(F)cc2)CC1 [Penfluridol] | 0.601 | 0.806 | 0.0479 | 0.065
2 | CC(C)Oc1ccc(C(=O)N[C@H](CNC(=O)CN(C)C)Cc2ccc(-c3cn4cccc([C@H](C)O)c4n3)cc2)cc1Cl | 0.413 | 0.508 | 0.29 | 0.438
3 | O=C(O)CCCc1ccccc1 [Sodium Phenylbutyrate] | 0.968 | 1.13 | 0.839 | 1.06
4 | Cc1cnc(NC(=O)C2=C(O)c3ccccc3S(=O)(=O)N2C)s1 [Meloxicam] | 1.1 | 1.16 | 1.12 | 1.1
5 | CC1(C)O[C@@H]2C[C@H]3[C@@H]4CCC5=CC(=O)C=C[C@]5(C)[C@@]4(F)[C@@H](O)C[C@]3(C)[C@]2(C(=O)CO)O1 [Triamcinolone Acetonide] | 1.1 | 1.08 | 1.08 | 1.08
6 | CCCCCCCCCCCCCCCC(=O)O[C@@H]1[C@@H](O)[C@@H](O)[C@@H]([C@H](NC(=O)[C@@H]2C[C@@H](CCC)CN2C)[C@H](C)Cl)O[C@@H]1SC [Clindamycin palmitate HCl] | 1 | 1.05 | 0.716 | 0.938
7 | CNc1cccc(CCOc2ccc3c(c2)CN(CC(F)(F)F)C(=O)[C@H](CC(=O)O)C3)n1 | 0.56 | 0.811 | 0.598 | 0.639
8 | CC(=O)Nc1ncc([N+](=O)[O-])s1 [Nithiamide] | 1.25 | 1.33 | 0.917 | 1.1
9 | CCOCC(O)COc1ccc(NC(=O)CC[S+](C)C)cc1 (configuration not stated) [Suplatast Tosylate] | 1.06 | 1.02 | 0.927 | 0.968
10 | CN1CCN(CCOc2cc(OC3CCOCC3)c3c(Nc4c(Cl)ccc5c4OCO5)ncnc3c2)CC1 [Saracatinib (AZD0530)] | 0.821 | 0.782 | 0.586 | 0.735
11 | C=CC(=O)Nc1ccc2ncnc(Nc3cccc(Br)c3)c2c1 | 0.927 | 0.921 | 0.248 | 0.317
12 | CCC(=O)c1c(O)cc(O)cc1O [Flopropione] | 0.894 | 1.08 | 0.772 | 1.08
13 | O=C(/C=C\n1cnc(-c2cc(C(F)(F)F)cc(C(F)(F)F)c2)n1)NNc1ccccn1 [Verdinexor (KPT-335)] | 0.137 | 0.13 | 0.162 | 0.121
14 | CC1Cc2ccccc2N1NC(=O)c1ccc(Cl)c(S(N)(=O)=O)c1 (configuration not stated) [Indapamide] | 0.853 | 1.02 | 0.844 | 0.996
15 | O=c1cc[nH]c(=S)[nH]1 [2-Thiouracil] | 1.06 | 1.17 | 0.961 | 1.13
16 | Cc1nc(-c2cn3c(n2)-c2ccc(-c4cnn(C(C)(C)C(N)=O)c4)cc2OCC3)n(C(C)C)n1 | 0.856 | 1.28 | 0.86 | 1.16
17 | O=C(/C=C/c1ccc(CN(CCO)CCc2c[nH]c3ccccc23)cc1)NO [LAQ824 (Dacinostat)] | 0.0782 | 0.125 | 0.0775 | 0.108
18 | CC(C)(C)c1ccc(-c2nc3ccccc3[nH]2)cc1 | 0.665 | 0.675 | 0.173 | 0.113
19 | COc1ccc(S(=O)(=O)N(C(C)=O)c2ccccc2/C=C/c2cc[n+]([O-])cc2)cc1 | 0.198 | 0.303 | 0.116 | 0.176
20 | Cc1c(F)cc(C(=O)NC2CC2)cc1-c1ccc(C(=O)NCC(C)(C)C)cn1 | 0.773 | 1.12 | 0.747 | 0.928
21 | Cc1cc(C)c(/C=C2\C(=O)Nc3ccccc32)[nH]1 [Semaxanib (SU5416)] | 1.09 | 1.14 | 0.782 | 1.02
22 | CC(C)c1cc(-c2ccc(F)c3ccccc23)nc(N)n1 | 1.01 | 1.07 | 1.02 | 1.21
23 | O=C(NOC[C@H](O)CO)c1ccc(F)c(F)c1Nc1ccc(I)cc1F | 0.353 | 0.349 | 0.211 | 0.232
24 | O=C1CC2(CCCC2)CC(=O)N1CCCCN1CCN(c2ncccn2)CC1 [Buspirone HCl] | 0.95 | 1.14 | 1.08 | 1.14
25 | CC[C@H]1OC(=O)[C@H](C)[C@@H](O[C@H]2C[C@@](C)(OC)[C@@H](O)[C@H](C)O2)[C@H](C)[C@@H](O[C@@H]2O[C@H](C)C[C@H](N(C)C)[C@H]2O)[C@](C)(O)C[C@@H](C)[C@@H]2N[C@@H](COCCOC)O[C@H]([C@H]2C)[C@]1(C)O [Dirithromycin] | 0.963 | 1.15 | 0.711 | 1.09
26 | C[C@H]1C[C@@H]2[C@H]([C@@H](O)C[C@@]3(C)[C@H]2CC[C@]3(O)C(=O)CO)[C@@]2(C)C=CC(=O)C=C12 [Methylprednisolone] | 1.15 | 1.16 | 1.07 | 1.07
27 | O=C1c2ccc(Nc3ccc(F)cc3F)cc2CCc2ccc(OC[C@H](O)CO)cc21 [Skepinone-L] | 0.864 | 1.06 | 0.397 | 0.641
28 | NC(=O)C(c1ccccc1)(c1ccccc1)[C@@H]1CCN(CCc2ccc3c(c2)CCO3)C1 [Darifenacin HBr] | 0.951 | 1.21 | 0.794 | 0.953

From the supplement of paper PMC5919970
